Assay [1] concerns the target T1, CD86 (UniProt P42081 24-247, limits assumed).
T1 construct: also called B7-2
T1 sequence (looked up): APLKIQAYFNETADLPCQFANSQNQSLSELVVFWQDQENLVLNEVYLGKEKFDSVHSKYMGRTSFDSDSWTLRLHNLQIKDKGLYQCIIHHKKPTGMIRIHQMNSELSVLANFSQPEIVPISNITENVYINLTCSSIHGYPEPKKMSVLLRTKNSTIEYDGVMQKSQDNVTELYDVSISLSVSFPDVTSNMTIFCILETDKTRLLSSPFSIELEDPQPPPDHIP
The experiment in a line: SPR BIAcore 3000, 25 C; CTLA4-Ig on chip, CD86 analyte. (Surface plasmon resonance follows binding to a sensor surface in real time, without labels.)

Assay [2] deals with T2, CD80 (UniProt P33681 35-242, limits assumed).
T2 construct: also called B7-1
T2 sequence (looked up): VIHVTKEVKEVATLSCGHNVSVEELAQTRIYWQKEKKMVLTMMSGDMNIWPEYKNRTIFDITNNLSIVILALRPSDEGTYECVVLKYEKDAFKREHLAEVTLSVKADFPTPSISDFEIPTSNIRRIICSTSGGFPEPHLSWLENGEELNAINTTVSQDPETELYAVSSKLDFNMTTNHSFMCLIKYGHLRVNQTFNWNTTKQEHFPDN
The experiment in a line: SPR BIAcore 3000, 25 C; CTLA4-Ig on chip, CD80 analyte.

In assay [3] the target is T2, CD80. The description is as above. This is another data set of the same source.
The target of assay [4] is T2, CD80. The assay is described as above. The source holds these as a separate data set.
In assay [5] the target is T1, CD86. The experiment in a line: SPR BIAcore 3000, 25 C; CTLA4-Ig on chip, CD86 analyte. This is another data set of the same source.
Assay [6] deals with T1, CD86. The description is as above. The source holds these as a separate data set.
The target of assay [7] is T2, CD80. As to the kind of experiment: SPR at pH 7.4 and pH 6.0; CD80 analyte.
Assay [8] has as its target T2, CD80. As to the kind of experiment: SPR as in Example 1, pH 6.0; CD80 analyte.
For assay [9], the target named is T2, CD80. The experiment in a line: SPR as in Example 1, pH 7.4; CD80 analyte.
Assay [10] concerns the target T2, CD80. As to the kind of experiment: SPR BIAcore 3000, 25 C; CTLA4-Ig on chip, CD80 analyte. This is another data set of the same source.
Assay [11] concerns the target T1, CD86. As to the kind of experiment: SPR as in Example 1, pH 6.0; CD86 analyte.
In assay [12] the target is T1, CD86. As to the kind of experiment: SPR as in Example 1, pH 7.4; CD86 analyte.
Assay [13] has as its target T1, CD86. The experiment in a line: SPR at pH 7.4 and pH 6.0; CD86 analyte.
Assay [14] deals with T1, CD86. As to the kind of experiment: SPR BIAcore 3000, 25 C; CTLA4-Ig on chip, CD86 analyte. The source holds these as a separate data set.

Like-named read-outs stand apart in the source and are kept apart here.

This is an account of results in patent US20210340213A1 (BEIJING VDJBIO, published 2021).

The Kd is the concentration at which binding is half-saturated. A higher Kd goes with lower affinity. What is called koff is a measure of how fast the partners let go of each other. Read a high koff as a short-lived complex. One may read the kon as a measure of how fast the partners come together. Low values mean slower complex formation, high ones faster complex formation.

B1: CTLA4-Ig variant 75# (Fc fusion)
chain: MHVAQPAVVLASSRGIASFVCEYASPDKAKATEVRVTVLRQADSQVTEVCAATYMMGNELTFLDDSICTFTSSGNQVNLTIQGLRAMDTGLYICKVELMYPPPYYLGIGNGTQIYVIDPEPCPDSDQ[human IgG1 Fc with changes not given here]
For the molecule B1, the Kd with CD86 [1] worked out at 5.07 nM; with CD80 [2], 0.787 nM; with CD80 [3], 0.0595 nM; in the assay with CD80 [4], 0.786 nM; in the assay with CD86 [5], 0.699 nM; with CD86 [6], 7.72 nM. Moreover, the “Relative affinity (KD(abatacept)/KD(variant))” value in the assay with CD86 [1] was 51.9; with CD80 [2], 26.8; with CD80 [3], 50.2; in the assay with CD80 [4], 13.6; with CD86 [5] it was 10; with CD86 [6] it was 10.7. Also, the koff turned out to be 0.00258 s⁻¹ with CD86 [1]; 0.000201 s⁻¹ with CD80 [2]; 2.26e-05 s⁻¹ with CD80 [3]; 0.000167 s⁻¹ with CD80 [4]; 0.000319 s⁻¹ with CD86 [5]; 0.00399 s⁻¹ with CD86 [6]. Further, the on-rate (kon) with CD86 [1] worked out at 508000 M⁻¹ s⁻¹; in the assay with CD80 [2], 255000 M⁻¹ s⁻¹; with CD80 [3], 380000 M⁻¹ s⁻¹; in the assay with CD80 [4], 213000 M⁻¹ s⁻¹; in the assay with CD86 [5], 457000 M⁻¹ s⁻¹; with CD86 [6] it was 517000 M⁻¹ s⁻¹.

B2: CTLA4-Ig variant 133# (Fc fusion)
chain: MHVAQPAVVLASSRGIASFVCEYASPDKAKATEVRVTVLRQADSQVTEVCAATYMMGNELTFLDDSICTFTSSGNQVNLTIQGLRAMDTGLYICMVELMYPPPYYLGIGNGTQIYVIDPEPCPDSDQ[human IgG1 Fc with changes not given here]
Consider B2, for which the “pH dependence (Fold of affinity decrease), KD pH 6.0 / KD pH 7.4” value with CD80 [7] was 3.94 fold; with CD86 [13] it was 7.48 fold. The dissociation constant Kd stood at 0.335 nM with CD80 [8]; 0.0849 nM with CD80 [9]; 0.0849 nM in the assay with CD80 [10]; 2.99 nM in the assay with CD86 [11]; 0.4 nM with CD86 [12]; 0.0674 nM with CD80 [3]. Also, the Kd stood at 0.497 nM in the assay with CD86 [5] and 0.4 nM with CD86 [14]. Besides, the off-rate constant (koff) with CD80 [8] was determined as 0.000107 s⁻¹; in the assay with CD80 [9] it was 3.02e-05 s⁻¹; with CD80 [10], 3.02e-05 s⁻¹; with CD86 [11], 0.00133 s⁻¹; with CD86 [12] it was 0.000161 s⁻¹; with CD80 [3], 2.28e-05 s⁻¹. The off-rate constant (koff) with CD86 [5] was 0.000179 s⁻¹; in the assay with CD86 [14] it was 0.000161 s⁻¹. The association rate constant (kon) with CD80 [8] stood at 319000 M⁻¹ s⁻¹; with CD80 [9], 356000 M⁻¹ s⁻¹; in the assay with CD80 [10], 356000 M⁻¹ s⁻¹; with CD86 [11], 445000 M⁻¹ s⁻¹; in the assay with CD86 [12], 404000 M⁻¹ s⁻¹; with CD80 [3], 338000 M⁻¹ s⁻¹. The kon stood at 360000 M⁻¹ s⁻¹ with CD86 [5] and 404000 M⁻¹ s⁻¹ with CD86 [14]. Also, the figures for the “Relative affinity (KD(abatacept)/KD(variant))” value in the assay with CD80 [3] and with CD86 [5] were 44.4 and 14.1, respectively.

B3: CTLA4-Ig variant 142# (Fc fusion)
chain: MHVAQPAVVLASSRGIASFVCEYASPDKAKATEVRVTVLRQTDSQVTEVCAATYMMGNELTFLDDSICTFTSSGNQVNLTIQGLRAMDTGLYICMVELMYPPPYYLGIGNGTQIYVIDPEPCPDSDQ[human IgG1 Fc with changes not given here]
Turning to B3, the “pH dependence (Fold of affinity decrease), KD pH 6.0 / KD pH 7.4” value with CD80 [7] stood at 3.01 fold; in the assay with CD86 [13], 48.7 fold. The Kd with CD80 [8] came out at 0.2 nM; in the assay with CD80 [9], 0.0664 nM; in the assay with CD80 [10] it was 0.0664 nM; with CD86 [11] it was 1.72 nM; with CD86 [12], 0.0353 nM; in the assay with CD86 [14], 0.0353 nM. Also, the dissociation rate constant (koff) with CD80 [8] amounted to 6.04e-05 s⁻¹; with CD80 [9], 2.31e-05 s⁻¹; with CD80 [10] it was 2.31e-05 s⁻¹; in the assay with CD86 [11], 0.000636 s⁻¹; in the assay with CD86 [12] it was 1.22e-05 s⁻¹; with CD86 [14], 1.22e-05 s⁻¹. The kon worked out at 302000 M⁻¹ s⁻¹ with CD80 [8]; 348000 M⁻¹ s⁻¹ in the assay with CD80 [9]; 348000 M⁻¹ s⁻¹ with CD80 [10]; 371000 M⁻¹ s⁻¹ with CD86 [11]; 347000 M⁻¹ s⁻¹ with CD86 [12]; 347000 M⁻¹ s⁻¹ in the assay with CD86 [14].
